Source: PubChem BioAssay AID485294 (National Center for Advancing Translational Sciences (NCATS), 2010)
Screen size: about 370,000 compounds; about 150 (0.041%) were called active. The shares of active, inactive and inconclusive entries below differ from those in the screen. The call rests on the fitted dose curve; in most records, active means well fitted inhibition curve with a large enough effect; inconclusive means small, poorly fitted or top-dose-only effect; inactive means flat fitted curve, though single readings scatter. No potency is given beside an inconclusive call; the fits are too rough.

target: Beta-lactamase (Escherichia coli (strain K12)) (UniProt P00811); assay: qHTS Inhibitors of AmpC Beta-Lactamase (assay with detergent); conditions: AmpC hydrolysis of nitrocefin, absorbance 480 nm, 0.01% Triton; activity change, negative = inhibition: at 114 µM (top of the series); further: nearly all actives have a fitted effect of over 25% in size;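 on activity change, negative = inhibition: 0% = no-compound wells and -100% = no-enzyme wells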
Method in brief: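 AmpC (5.3 nM in the dispensed reagent) in 20 mM phosphate pH 7.0 with 0.01% (detergent screen) or 0.0001% Triton X-100 was preincubated with compounds for 15 min at room temperature. Nitrocefin was then added from an 800 uM solution, and hydrolysis was followed at 480 nm.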
Potency means the concentration at half of the fitted maximal effect; tags describe the fitted curve by direction and shape.

Sequence of UniProt P00811 (P00811 whole entry, looked up): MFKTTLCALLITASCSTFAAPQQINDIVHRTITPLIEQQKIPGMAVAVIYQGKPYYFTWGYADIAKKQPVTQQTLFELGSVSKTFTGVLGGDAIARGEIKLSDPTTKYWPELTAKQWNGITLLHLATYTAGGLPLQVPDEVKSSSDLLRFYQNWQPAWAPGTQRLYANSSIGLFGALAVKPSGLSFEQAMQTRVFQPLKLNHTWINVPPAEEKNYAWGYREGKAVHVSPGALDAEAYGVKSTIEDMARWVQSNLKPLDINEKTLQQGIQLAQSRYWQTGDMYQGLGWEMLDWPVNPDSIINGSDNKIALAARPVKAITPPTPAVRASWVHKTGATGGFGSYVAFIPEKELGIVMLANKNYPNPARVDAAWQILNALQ

Row | SMILES | Potency | activity change, negative = inhibition
1 | COc1cccc(OC)c1C(=O)Nc1ccc(S(=O)(=O)Nc2cc(C)nc(C)n2)cc1 | inconclusive [inhibitor, full curve, poor fit] | –
2 | O=c1[nH]c(SCc2ccccc2Cl)nc2c1cnn2-c1ccccc1 | inconclusive [inhibitor, partial curve] | –
3 | Cc1ccc(C2CC(c3cccs3)=NN2C(=O)CSC2=NN3CCCC(=O)N=C3S2)cc1 (stereo unspecified) | inconclusive [inhibitor, full curve, poor fit] | –
4 | Cc1ccsc1C(=O)NNC(=O)C1CCCCC1C(=O)O (stereo unspecified) | inconclusive [inhibitor, partial curve] | –
5 | CC/C(=N\NC(=O)C(N)=O)c1ccccc1O | inconclusive [inhibitor, full curve, poor fit] | –
6 | O=C(NCCCN1CCCC1=O)c1cc(-c2ccc3c(c2)OCO3)nc2ccccc12 | inconclusive [inhibitor, single point] | –
7 | NC(=S)NNC(=O)/C(=C/c1ccc(Br)cc1)NC(=O)c1ccccc1 | inconclusive [inhibitor, partial curve, poor fit] | –
8 | O=c1oc(-c2cccs2)nc2ccc(Cl)cc12 | – | inactive: -2.05%
9 | COc1ccc(N2C(=O)CC(Sc3nc(C)cc(C)n3)C2=O)cc1OC (stereo unspecified) | inconclusive [inhibitor, full curve] | –
10 | C=CCSC1=N/C(=C\c2cc(OC)c3c(c2)OCO3)C(=O)S1 | inconclusive [inhibitor, full curve, poor fit] | –
11 | Cc1ccc(OCC(=O)Nc2ccc(F)cc2)c([N+](=O)[O-])n1 | – | inactive: 0.941%
12 | CCOC(=O)N1CCc2c(sc3c2c(=O)n(Cc2ccccc2)c(=O)n3Cc2ccccc2F)C1 | inconclusive [inhibitor, partial curve, poor fit] | –
13 | O=C(COC(=O)c1ccc(O)cc1)Nc1ncc(Cl)cc1Cl | inconclusive [inhibitor, full curve, poor fit] | –
14 | Cc1ccc(Cl)cc1N1CCN(C(=O)c2cccn3c(=O)c4cc(Cl)ccc4nc23)CC1 | – | inactive: 7.06%
15 | COc1ccc(CNC(=S)Nc2cccc(F)c2)cc1 | inconclusive [inhibitor, partial curve, poor fit] | –
16 | Cc1ccc(N(C(=O)CCC(=O)Nc2cc(C)on2)C(C(=O)NC2CCCC2)c2ccccc2)cc1 (stereo unspecified) | – | inactive: 3.48%
17 | CC(=O)C1=C(O)C(=O)N(c2ccc(Br)cc2)C1c1ccc(Cl)cc1 (stereo unspecified) | inconclusive [inhibitor, full curve, poor fit] | –
18 | Cc1ccc(-n2nc3c(c2NC(=O)CCC2CCCCC2)CS(=O)C3)cc1 (stereo unspecified) | inconclusive [inhibitor, partial curve, poor fit] | –
19 | O=C/C(=C\Nc1ccccn1)c1nc2ccccc2o1 | inconclusive [inhibitor, single point] | –
20 | C=CCNC(=S)NNC(=O)c1ccccc1 | inconclusive [inhibitor, full curve] | –
21 | CCOC(=O)c1cc(C)n(CC2CCC(C(=O)Nc3ccc(OCC)cc3)CC2)c1C (stereo unspecified) | – | inactive: 2.14%
22 | COc1ccc(C(=O)N2CCCCCC2)cc1OC1CCN(C(C)=O)CC1 | – | inactive: -17.7%
23 | Cc1ccc2oc(-c3cc(NC(=O)c4ccc5c(c4)OCCO5)cc(C)c3O)nc2c1 | – | inactive: -3.19%
24 | Cc1ccc(C)c(CN2C(=O)C3(c4ccccc42)N(c2cccc(C(F)(F)F)c2)C(=O)CS3(=O)=O)c1 (stereo unspecified) | – | inactive: 20%

Row | SMILES | Potency | activity change, negative = inhibition
25 | COC(=O)CC1COc2ccccc2N1C(=O)c1ccc(C(C)(C)C)cc1 (stereo unspecified) | inconclusive [inhibitor, partial curve] | –
26 | Cc1ccc(OCCCSc2n[nH]c(N)n2)cc1 | – | inactive: 2.39%
27 | O=C(O)C1CCCCN1S(=O)(=O)c1ccc(Cl)s1 (stereo unspecified) | – | inactive: 1.99%
28 | O=C(N/N=C/c1ccc(Sc2ccccn2)o1)c1cccc([N+](=O)[O-])c1 | inconclusive [inhibitor, full curve, poor fit] | –
29 | CCn1c(N)c(Br)c(=O)[nH]c1=O | inconclusive [inhibitor, full curve, poor fit] | –
30 | N=c1c(C(=O)NCc2ccco2)cc2c(=O)n3ccccc3nc2n1CCc1ccccc1 | inconclusive [inhibitor, partial curve, poor fit] | –
31 | O=C(Nc1ccccc1)C1C2CCC3C(CCC21)C3(Cl)Cl (stereo unspecified) | – | inactive: -6.03%
32 | O=C(CSc1nnc(-c2cccs2)n1-c1ccccc1)c1ccc2c(c1)OCCO2 | inconclusive [inhibitor, full curve] | –
33 | O=C(NCC(c1ccco1)N1CCc2ccccc2C1)c1ccc([N+](=O)[O-])cc1 (stereo unspecified) | inconclusive [inhibitor, full curve, poor fit] | –
34 | Cc1ccc2c(=O)cc(C(=O)Nc3sc4c(c3C(N)=O)CCCC4)oc2c1 | – | inactive: 18%
35 | COCCCNC(=O)CC1Oc2ccccc2NC1=O (stereo unspecified) | inconclusive [inhibitor, full curve, poor fit] | –
36 | O=C(Nc1ccc2ccccc2c1)c1ccc(NS(=O)(=O)c2ccc(Br)s2)cc1 | inconclusive [inhibitor, partial curve] | –
37 | CCCCN(Cc1ccco1)S(=O)(=O)c1csc(C(N)=O)c1 | inconclusive [inhibitor, partial curve, poor fit] | –
38 | O=C(N/N=C1/CCc2ccccc21)C1CC1 | – | inactive: -0.602%
39 | O=c1cc(-c2ccccc2)n(S(=O)(=O)c2ccccc2)o1 | – | inactive: -7.68%
40 | COCCn1cc(C(=O)N2CCCC(C)C2)c2c3ccccc3n(C)c2c1=O (stereo unspecified) | – | inactive: 1.75%
41 | COc1ccc2c(c1)CCc1c(C(=O)N(C)c3ccccc3)noc1-2 | – | inactive: 3.94%
42 | CC(C(=O)Nc1ccc(C(=O)O)cc1)N1C(=O)c2ccccc2C1=O (stereo unspecified) | inconclusive [inhibitor, partial curve] | –
43 | Cc1ccc(C2CC(=O)N(Cc3ccccc3)c3c2c(C)nn3-c2nc(C)cc(C)n2)cc1 (stereo unspecified) | – | inactive: 13.1%
44 | Cc1oc(-c2ccccc2)[n+]([O-])c1C | inconclusive [inhibitor, full curve, poor fit] | –
45 | CCc1nc2ccccc2n(CC)c1=O | inconclusive [inhibitor, full curve, poor fit] | –
46 | CSCCC(NS(=O)(=O)c1ccc(C)cc1)C(=O)N1CCN(C(c2ccccc2)c2ccccc2)CC1 (stereo unspecified) | – | inactive: -10.1%
47 | O=C(C1CCCN(S(=O)(=O)c2ccc(Br)s2)C1)N1CCN(c2ccc(F)cc2)CC1 (stereo unspecified) | – | inactive: 19.8%
48 | Cc1cc(/C([O-])=C(/C(=S)Nc2ccccc2)[n+]2ccccc2)c(C)n1-c1ccccc1 | – | inactive: -10.6%

Row | SMILES | Potency | activity change, negative = inhibition
49 | c1ccc(-c2nnc(SCc3nc4ccccc4[nH]3)n2Cc2ccco2)cc1 | – | inactive: -6.83%
50 | Cc1ccc(NC(=O)N2CCN(c3ncccc3C(F)(F)F)CC2)cc1 | – | inactive: -5.24%
51 | CCOc1ccc(Sc2cc(C(=O)NC(C)CC)c3ccccc3n2)cc1 (stereo unspecified) | – | inactive: 8.23%
52 | N#CC1=C(N)Oc2nc(-c3ccccc3)[nH]c2C1c1cccnc1 (stereo unspecified) | inconclusive [inhibitor, full curve, poor fit] | –
53 | O=C(CCC(=O)OCC(=O)c1cccc([N+](=O)[O-])c1)Nc1ccccc1Cl | inconclusive [inhibitor, full curve, poor fit] | –
54 | COc1ccc2c(c1OC)C(=O)N(c1ccc(C)c(C)c1)C2=O | inconclusive [inhibitor, partial curve, poor fit] | –
55 | O=C(c1cccc(-c2ccc(O)cc2)c1)N1CCOCC1 | inconclusive [inhibitor, partial curve] | –
56 | COc1ccc(Cl)c2sc(NC(=O)C3=COCCO3)nc12 | – | inactive: -13.6%
57 | Cc1cc(SCC(=O)O)nc2ccccc12 | inactive | –
58 | CCOc1ccc(NC(=O)CN(C)C(=O)c2c(-c3c(F)cccc3Cl)noc2C)cc1OCC | inconclusive [inhibitor, full curve] | –
59 | CC(C)(C)c1csc(NC(=O)c2cccnc2)n1 | – | inactive: -2.69%
60 | COC(=O)c1ccc(NC(=O)CC2C(=O)N(c3ccc(F)cc3)C(=O)N2Cc2ccc(OC)cc2)cc1 (stereo unspecified) | – | inactive: 12.5%
61 | Cc1cc(=O)[nH]n(CCO)c1=O | inconclusive [inhibitor, single point] | –
62 | COc1ccc(N/C(N)=N/c2nc(C)c(Cc3ccccc3)c(=O)[nH]2)cc1 | inconclusive [inhibitor, full curve, poor fit] | –
63 | Cc1ccc(CONC(=O)c2cccc([N+](=O)[O-])c2)cc1 | inconclusive [inhibitor, full curve, poor fit] | –
64 | Cc1c(Cl)sn(-c2ccc(Cl)cc2)c1=O | inconclusive [inhibitor, full curve] | –
65 | COc1cc(C(=O)NCCC(=O)N2CCCCC2)cc(OC)c1OC | – | inactive: 2.7%
66 | CS(=O)(=O)c1ccccc1-c1nc(-c2ccc([N+](=O)[O-])cc2)no1 | inconclusive [inhibitor, full curve, poor fit] | –
67 | CN(C)C(C(=O)Nc1cc(Cl)cc(Cl)c1)c1ccccc1 (stereo unspecified) | inconclusive [inhibitor, partial curve] | –
68 | COc1ccc(NC(=O)COC(=O)Cc2c(F)cccc2Cl)cc1 | inconclusive [inhibitor, partial curve, poor fit] | –
69 | CCC(=O)Nc1ccc(C(=O)CSc2nc3ccc(C)cc3[nH]2)cc1 | inconclusive [inhibitor, partial curve, poor fit] | –
70 | O=C(NC(=S)N1CCN(C/C=C/c2ccccc2)CC1)c1ccc(F)cc1 | – | inactive: -7.72%
71 | COc1ccc(CCNC(=O)c2c(N)n(CCN3CCOCC3)c3nc4ccccc4nc23)cc1 | inconclusive [inhibitor, partial curve] | –
